The results in this text go back to PMC6329626.

Substrate in the data set: Cc1onc(-c2c(F)cccc2Cl)c1C(=O)N[C@@H]1C(=O)N2[C@@H]1SC(C)(C)[C@@H]2C(=O)O
The experiment in a line: cells, lysate or membranes named. To be noted: other: 100 nM CYP3A4 Supersomes, 10 min; pH 7.4; 37.0 °C.

B1: recombinant human CYP3A4 (Homo sapiens) (protein)
chain: MALIPDLAMETWLLLAVSLVLLYLYGTHSHGLFKKLGIPGPTPLPFLGNILSYHKGFCMFDMECHKKYGKVWGFYDGQQPVLAITDPDMIKTVLVKECYSVFTNRRPFGPVGFMKSAISIAEDEEWKRLRSLLSPTFTSGKLKEMVPIIAQYGDVLVRNLRREAETGKPVTLKDVFGAYSMDVITSTSFGVNIDSLNNPQDPFVENTKKLLRFDFLDPFFLSITVFPFLIPILEVLNICVFPREVTNFLRKSVKRMKESRLEDTQKHRVDFLQLMIDSQNSKETESHKALSDLELVAQSIIFIFAGYETTSSVLSFIMYELATHPDVQQKLQEEIDAVLPNKAPPTYDTVLQMEYLDMVVNETLRLFPIAMRLERVCKKDVEINGMFIPKGVVVMIPSYALHRDPKYWTEPEKFLPERFSKKNKDNIDPYIYTPFGSGPRNCIGMRFALMNMKLALIRVLQNFSFKPCKETQIPLKLSLGGLLQPEKPVVLKVESRDGTVSGA
On to B1, for which the kcat was found to be 197 ± 9 pmol·min^−1·nmol^−1 P450.
